The results in this text go back to patent US20210221906A1 (Dana-Farber, published 2021).

This assay has as its target human carbonic anhydrase IX (CAIX) on renal cell carcinoma cells (human, UniProt Q16790). Briefly: cell-based or functional assay.

B1: G36-CD28z CAR (scFvG36-CD28-TCRζ, 2nd generation anti-CAIX CAR) on transduced human T cells (other)
chain: EVQLVQSGGGVVQPGGSLRLSCAASGFPFSSYAMSWVRQAPGKGLEWVSAISANGGTTYYADSVKGRFTISRDNSKNTLYLQMNSLRAEDTAVYYCANNGNYRGAFDIWGQGTMVTVSSGGGGSGGGGSGGGGSQSVLTQPPSVSGAPGQRVTISCTGSSSNIGAGFDVHWYQQLPGTAPKLLIYGNTNRPSGVPDRFSGSKSGTSASLAITGLQAEDETDYYCQSYDSRLSAWVFGGGTKLTVLGTETSQVAPAGGGGSIEVMYPPPYLDNEKSNGTIIHVKGKHLCPSPLFPGPSKPFWVLVVVGGVLACYSLLVTVAFIIFWVRSKRSRLLHSDYMNMTPRRPGPTRKHYQPYAPPRDFAAYRS[about 120 residues left out]
Regarding B1, the “IFN-γ ELISPOT spots with sk-rc-52 cells, fold over CAIX- sk-rc-59 cells” value was 12 fold; the “IFN-γ ELISPOT spots with sk-rc-52 cells, fold over G36-CD8z CART cells” value stood at 6 fold; the “IFNγ secretion with sk-rc-52 cells, fold over G36-CD8z CART cells” value was 2.3 fold; the “IL-2 secretion with sk-rc-52 cells, fold over G36-CD8z CART cells” value is 6.5 fold. Further, the “IL-17 secretion with sk-rc-52 cells, fold over G36-CD8z CART cells” value is 4 fold; the “T cell proliferation after two weeks with sk-rc-52, tumor:T cell 1:4” value was 19 fold; the “T cell proliferation after two weeks with sk-rc-52, tumor:T cell 1:8” value was determined as 30 fold.

B2: G36-CD8z CAR (scFvG36-CD8-TCRζ, 1st generation anti-CAIX CAR) on transduced human T cells (other)
chain: EVQLVQSGGGVVQPGGSLRLSCAASGFPFSSYAMSWVRQAPGKGLEWVSAISANGGTTYYADSVKGRFTISRDNSKNTLYLQMNSLRAEDTAVYYCANNGNYRGAFDIWGQGTMVTVSSGGGGSGGGGSGGGGSQSVLTQPPSVSGAPGQRVTISCTGSSSNIGAGFDVHWYQQLPGTAPKLLIYGNTNRPSGVPDRFSGSKSGTSASLAITGLQAEDETDYYCQSYDSRLSAWVFGGGTKLTVLGTETSQVAPAGGGGSPTTTPAPRPPTPAPTIASQPLSLRPEACRPAAGGAVHTRGLDFACDIYIWAPLAGTCGVLLLSLVITLYCNH[about 120 residues left out]
In the case of B2, the “T cell proliferation after two weeks with sk-rc-52, tumor:T cell 1:4” value was determined as 4 fold and the “T cell proliferation after two weeks with sk-rc-52, tumor:T cell 1:8” value turned out to be 17 fold.
